From ChEMBL document CHEMBL3301361, “Experimental in vitro DMPK and physicochemical data on a set of publicly disclosed compounds”
In brackets after ≈: the same amount, converted by molar mass.

How the values were obtained:
physchem [1] = details: octan-1-ol/water, pH 7.4
physchem [2] = details: pH 7.4 buffer

Structure (SMILES): COC(=O)C1=C(C)NC(C)=C(C(=O)OC)C1c1ccccc1[N+](=O)[O-] [NIFEDIPINE]
- logD (physchem [1]): 3.29
- solubility thermodynamic (physchem [2]): 20.9 µM (≈ 7.24 µg/mL)
